Earlier results, collected in article PMC11006913.
Residue numbers refer to the chain shown, from its start. The list shows a part of the results.

Key:
Settings in all cases: PBM; conditions not shown; double strand, one strand shown; scale: upbm affinity estimate (log intensity, higher = more binding, comparable within an allelic series)
[1] = target: T1, HESX1 E149K (Homo sapiens) (UniProt Q9UBX0)
T1 sequence: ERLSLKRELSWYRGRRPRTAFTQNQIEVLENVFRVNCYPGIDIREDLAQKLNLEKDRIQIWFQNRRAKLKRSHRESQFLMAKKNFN

[2] = target: T2, HESX1 N125S (Homo sapiens) (UniProt Q9UBX0)
T2 sequence: T1 sequence with N31S, K55E

[3] = target: T3, HESX1 R160C (Homo sapiens) (UniProt Q9UBX0)
T3 sequence: T1 sequence with K55E, R66C

[4] = target: HOXD13 I297V (Homo sapiens) (UniProt P35453)
[5] = target: HOXD13 I322L (Homo sapiens) (UniProt P35453)
[6] = target: HOXD13 N298S (Homo sapiens) (UniProt P35453)
[7] = target: HOXD13 Q325K (Homo sapiens) (UniProt P35453)
[8] = target: HOXD13 Q325R (Homo sapiens) (UniProt P35453)
[9] = target: HOXD13 R306W (Homo sapiens) (UniProt P35453)
[10] = target: HOXD13 S316C (Homo sapiens) (UniProt P35453)
ISX (Homo sapiens) = ISX (Homo sapiens) (UniProt Q2M1V0)
ISX R83Q (Homo sapiens) = ISX R83Q (Homo sapiens) (UniProt Q2M1V0)

CGCTCGGC [8-mer CGCTCGGC]
binding signal [1]: 9.93
binding signal [2]: 7.72
binding signal [3]: 10
binding signal [4]: 9.19
binding signal [5]: 9.35
binding signal [6]: 9.29
binding signal [7]: 9.55
binding signal [8]: 9.39
binding signal [9]: 9.46
binding signal [10]: 9.36

CCAGGCCG [8-mer CCAGGCCG]
binding signal [1]: 9.89
binding signal [2]: 7.6
binding signal [3]: 9.97
binding signal [4]: 9.41
binding signal [5]: 9.32
binding signal [6]: 9.28
binding signal [7]: 9.53
binding signal [8]: 9.36
binding signal [9]: 9.43
binding signal [10]: 9.43

CCGACTCC [8-mer CCGACTCC]
binding signal [1]: 9.96
binding signal [2]: 7.67
binding signal [3]: 10.1
binding signal [4]: 9.5
binding signal [5]: 9.46
binding signal [6]: 9.46
binding signal [7]: 9.5
binding signal [8]: 9.44
binding signal [9]: 9.44
binding signal [10]: 9.51

AGGCTGGG [8-mer AGGCTGGG]
binding signal [1]: 9.88
binding signal [2]: 7.73
binding signal [3]: 9.98

CTGACGTC [8-mer CTGACGTC]
binding signal [1]: 10.1
binding signal [2]: 7.78
binding signal [3]: 10.1

CAACCGGC [8-mer CAACCGGC]
binding signal [1]: 10
binding signal [2]: 7.74
binding signal [3]: 10.1

AGCGTCCG [8-mer AGCGTCCG]
binding signal [1]: 9.92
binding signal [2]: 7.42
binding signal [3]: 10.1

CACAATTA [8-mer CACAATTA]
binding signal [1]: 11.3
binding signal [2]: 11
binding signal [3]: 10.3
binding signal (ISX (Homo sapiens)): 14.6
binding signal (ISX R83Q (Homo sapiens)): 12.8

CCCGGTGC [8-mer CCCGGTGC]
binding signal [1]: 9.95
binding signal [2]: 7.8
binding signal [3]: 9.97

AGGGAGCG [8-mer AGGGAGCG]
binding signal [1]: 9.98
binding signal [2]: 7.54
binding signal [3]: 10

CCCGGGCG [8-mer CCCGGGCG]
binding signal [1]: 9.74
binding signal [2]: 7.67
binding signal [3]: 9.92
binding signal [4]: 9.33
binding signal [5]: 9.39
binding signal [6]: 9.3
binding signal [7]: 9.59
binding signal [8]: 9.45
binding signal [9]: 9.33
binding signal [10]: 9.35

GCTCCTCC [8-mer GCTCCTCC]
binding signal [1]: 9.86
binding signal [2]: 7.5
binding signal [3]: 10.1
binding signal [4]: 9.43
binding signal [5]: 9.36
binding signal [6]: 9.51
binding signal [7]: 9.28
binding signal [8]: 9.31
binding signal [9]: 9.42
binding signal [10]: 9.53

AGGCGAAG [8-mer AGGCGAAG]
binding signal [1]: 10
binding signal [2]: 7.8
binding signal [3]: 10.1

GCCCTGGA [8-mer GCCCTGGA]
binding signal [1]: 9.94
binding signal [2]: 7.69
binding signal [3]: 10.1

TGGTACCA [8-mer TGGTACCA]
binding signal [1]: 10.2
binding signal [2]: 7.98
binding signal [3]: 10.3

CCGGAGCA [8-mer CCGGAGCA]
binding signal [1]: 10
binding signal [2]: 7.93
binding signal [3]: 10.1

AGGGGGCA [8-mer AGGGGGCA]
binding signal [1]: 9.92
binding signal [2]: 7.76
binding signal [3]: 10.1
binding signal [4]: 9.63
binding signal [5]: 9.35
binding signal [6]: 9.59
binding signal [7]: 9.55
binding signal [8]: 9.47
binding signal [9]: 9.41
binding signal [10]: 9.46
